Test results from publication PMC5908784, “Extracellular loops 2 and 3 of the calcitonin receptor selectively modify agonist binding and efficacy” (Biochemical Pharmacology, 2018).

Assays:
Format in all cases: cell-based
hCTR C289A = biological target: T1, hCTR C289A (Homo sapiens, UniProt P30988, C289A); test: cAMP accumulation; conditions: CV1-FlpIn cells, 30 min, IBMX, mean ± S.E.M.
T1 construct: c-Myc (N); expressed in transfected cells
Experimental: (§1) Cells (2.5 × 10^4 cells/well) were seeded into 96-well plates and incubated overnight. Cells were stimulated with increasing concentrations of ligands for 30 min in the presence of IBMX. The liquid was discarded, changed to absolute ethanol and volatilized to dryness at room temperature. […] Data were normalized to the response of 100 μM forskolin.
(§2) Data were corrected for radioligand occupancy using the Cheng-Prusoff equation in Prism; as such data are reported as pKi. Emax and EC50 were estimated from concentration-response curves using with a 3-parameter logistic equation in Prism (v7). These values are a composite of functional affinity, efficacy and stimulus response coupling. […] Significance was accepted at P < 0.05.

hCTR E294A = biological target: T2, hCTR E294A (Homo sapiens, UniProt P30988, E294A); test: cAMP accumulation; conditions: CV1-FlpIn cells, 30 min, IBMX, mean ± S.E.M.
T2 construct: c-Myc (N); expressed in transfected cells
T2 sequence (P30988 25-474 E294A): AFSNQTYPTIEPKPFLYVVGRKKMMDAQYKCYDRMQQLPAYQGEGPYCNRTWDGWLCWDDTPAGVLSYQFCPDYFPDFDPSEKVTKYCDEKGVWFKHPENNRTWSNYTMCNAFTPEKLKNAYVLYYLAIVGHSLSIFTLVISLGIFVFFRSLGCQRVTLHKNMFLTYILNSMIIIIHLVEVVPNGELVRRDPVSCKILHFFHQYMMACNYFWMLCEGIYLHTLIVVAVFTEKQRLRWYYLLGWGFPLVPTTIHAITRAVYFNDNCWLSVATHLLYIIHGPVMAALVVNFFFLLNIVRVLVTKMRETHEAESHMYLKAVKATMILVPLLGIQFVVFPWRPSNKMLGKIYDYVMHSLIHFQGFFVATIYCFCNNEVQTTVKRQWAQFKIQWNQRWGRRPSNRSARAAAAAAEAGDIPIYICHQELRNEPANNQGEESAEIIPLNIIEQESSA
Experimental: as §1, §2

hCTR F285A [1] = biological target: T3, hCTR F285A (Homo sapiens, UniProt P30988, F285A); test: cAMP accumulation; conditions: CV1-FlpIn cells, 30 min, IBMX, mean ± S.E.M.
T3 construct: expressed in transfected cells
T3 sequence (P30988 25-474 F285A): as the sequence (P30988 25-474 E294A) above, with F261A, A270E counted along it
Experimental: as §1, §2

hCTR F356A = biological target: T4, hCTR F356A (Homo sapiens, UniProt P30988, F356A); test: cAMP accumulation; conditions: CV1-FlpIn cells, 30 min, IBMX, mean ± S.E.M.
T4 construct: c-Myc (N); expressed in transfected cells
T4 sequence (P30988 25-474 F356A): as the sequence (P30988 25-474 E294A) above, with A270E, F332A counted along it
Experimental: as §1, §2

hCTR F359A = biological target: T5, hCTR F359A (Homo sapiens, UniProt P30988, F359A); test: cAMP accumulation; conditions: CV1-FlpIn cells, 30 min, IBMX, mean ± S.E.M.
T5 construct: expressed in transfected cells
T5 sequence (P30988 25-474 F359A): as the sequence (P30988 25-474 E294A) above, with A270E, F335A counted along it
Experimental: as §1, §2

hCTR I279A = biological target: T6, hCTR I279A (Homo sapiens, UniProt P30988, I279A); test: cAMP accumulation; conditions: CV1-FlpIn cells, 30 min, IBMX, mean ± S.E.M.
T6 construct: expressed in transfected cells
T6 sequence (P30988 25-474 I279A): as the sequence (P30988 25-474 E294A) above, with I255A, A270E counted along it
Experimental: as §1, §2

hCTR I371A = biological target: T7, hCTR I371A (Homo sapiens, UniProt P30988, I371A); test: cAMP accumulation; conditions: CV1-FlpIn cells, 30 min, IBMX, mean ± S.E.M.
T7 construct: c-Myc (N); expressed in transfected cells
T7 sequence (P30988 25-474 I371A): as the sequence (P30988 25-474 E294A) above, with A270E, I347A counted along it
Experimental: as §1, §2

hCTR K366A = biological target: T8, hCTR K366A (Homo sapiens, UniProt P30988, K366A); test: cAMP accumulation; conditions: CV1-FlpIn cells, 30 min, IBMX, mean ± S.E.M.
T8 construct: c-Myc (N); expressed in transfected cells
T8 sequence (P30988 25-474 K366A): as the sequence (P30988 25-474 E294A) above, with A270E, K342A counted along it
Experimental: as §1, §2

hCTR L297A = biological target: T9, hCTR L297A (Homo sapiens, UniProt P30988, L297A); test: cAMP accumulation; conditions: CV1-FlpIn cells, 30 min, IBMX, mean ± S.E.M.
T9 construct: c-Myc (N); expressed in transfected cells
T9 sequence (P30988 25-474 L297A): as the sequence (P30988 25-474 E294A) above, with A270E, L273A counted along it
Experimental: as §1, §2

hCTR L298A = biological target: T10, hCTR L298A (Homo sapiens, UniProt P30988, L298A); test: cAMP accumulation; conditions: CV1-FlpIn cells, 30 min, IBMX, mean ± S.E.M.
T10 construct: c-Myc (N); expressed in transfected cells
T10 sequence (P30988 25-474 L298A): as the sequence (P30988 25-474 E294A) above, with A270E, L274A counted along it
Experimental: as §1, §2

hCTR L368A = biological target: T11, hCTR L368A (Homo sapiens, UniProt P30988, L368A); test: cAMP accumulation; conditions: CV1-FlpIn cells, 30 min, IBMX, mean ± S.E.M.
T11 construct: c-Myc (N); expressed in transfected cells
T11 sequence (P30988 25-474 L368A): as the sequence (P30988 25-474 E294A) above, with A270E, L344A counted along it
Experimental: as §1, §2

hCTR M367A = biological target: T12, hCTR M367A (Homo sapiens, UniProt P30988, M367A); test: cAMP accumulation; conditions: CV1-FlpIn cells, 30 min, IBMX, mean ± S.E.M.
T12 construct: c-Myc (N); expressed in transfected cells
T12 sequence (P30988 25-474 M367A): as the sequence (P30988 25-474 E294A) above, with A270E, M343A counted along it
Experimental: as §1, §2

hCTR M376A = biological target: T13, hCTR M376A (Homo sapiens, UniProt P30988, M376A); test: cAMP accumulation; conditions: CV1-FlpIn cells, 30 min, IBMX, mean ± S.E.M.
T13 construct: c-Myc (N); expressed in transfected cells
T13 sequence (P30988 25-474 M376A): as the sequence (P30988 25-474 E294A) above, with A270E, M352A counted along it
Experimental: as §1, §2

hCTR N288A = biological target: T14, hCTR N288A (Homo sapiens, UniProt P30988, N288A); test: cAMP accumulation; conditions: CV1-FlpIn cells, 30 min, IBMX, mean ± S.E.M.
T14 construct: expressed in transfected cells
T14 sequence (P30988 25-474 N288A): as the sequence (P30988 25-474 E294A) above, with N264A, A270E counted along it
Experimental: as §1, §2

hCTR N365A = biological target: T15, hCTR N365A (Homo sapiens, UniProt P30988, N365A); test: cAMP accumulation; conditions: CV1-FlpIn cells, 30 min, IBMX, mean ± S.E.M.
T15 construct: c-Myc (N); expressed in transfected cells
T15 sequence (P30988 25-474 N365A): as the sequence (P30988 25-474 E294A) above, with A270E, N341A counted along it
Experimental: as §1, §2

hCTR P360A = biological target: T16, hCTR P360A (Homo sapiens, UniProt P30988, P360A); test: cAMP accumulation; conditions: CV1-FlpIn cells, 30 min, IBMX, mean ± S.E.M.
T16 construct: expressed in transfected cells
T16 sequence (P30988 25-474 P360A): as the sequence (P30988 25-474 E294A) above, with A270E, P336A counted along it
Experimental: as §1, §2

hCTR P363A = biological target: T17, hCTR P363A (Homo sapiens, UniProt P30988, P363A); test: cAMP accumulation; conditions: CV1-FlpIn cells, 30 min, IBMX, mean ± S.E.M.
T17 construct: expressed in transfected cells
T17 sequence (P30988 25-474 P363A): as the sequence (P30988 25-474 E294A) above, with A270E, P339A counted along it
Experimental: as §1, §2

hCTR R281A = biological target: T18, hCTR R281A (Homo sapiens, UniProt P30988, R281A); test: cAMP accumulation; conditions: CV1-FlpIn cells, 30 min, IBMX, mean ± S.E.M.
T18 construct: expressed in transfected cells
T18 sequence (P30988 25-474 R281A): as the sequence (P30988 25-474 E294A) above, with R257A, A270E counted along it
Experimental: as §1, §2

hCTR R362A = biological target: T19, hCTR R362A (Homo sapiens, UniProt P30988, R362A); test: cAMP accumulation
T19 construct: expressed in transfected cells
T19 sequence (P30988 25-474 R362A): as the sequence (P30988 25-474 E294A) above, with A270E, R338A counted along it
Experimental: as §1, §2

hCTR S292A = biological target: T20, hCTR S292A (Homo sapiens, UniProt P30988, S292A); test: cAMP accumulation; conditions: CV1-FlpIn cells, 30 min, IBMX, mean ± S.E.M.
T20 construct: expressed in transfected cells
T20 sequence (P30988 25-474 S292A): as the sequence (P30988 25-474 E294A) above, with S268A, A270E counted along it
Experimental: as §1, §2

hCTR S364A = biological target: T21, hCTR S364A (Homo sapiens, UniProt P30988, S364A); test: cAMP accumulation; conditions: CV1-FlpIn cells, 30 min, IBMX, mean ± S.E.M.
T21 construct: c-Myc (N); expressed in transfected cells
T21 sequence (P30988 25-474 S364A): as the sequence (P30988 25-474 E294A) above, with A270E, S340A counted along it
Experimental: as §1, §2

hCTR T280A = biological target: T22, hCTR T280A (Homo sapiens, UniProt P30988, T280A); test: cAMP accumulation; conditions: CV1-FlpIn cells, 30 min, IBMX, mean ± S.E.M.
T22 construct: expressed in transfected cells
T22 sequence (P30988 25-474 T280A): as the sequence (P30988 25-474 E294A) above, with T256A, A270E counted along it
Experimental: as §1, §2

hCTR V283A = biological target: T23, hCTR V283A (Homo sapiens, UniProt P30988, V283A); test: cAMP accumulation; conditions: CV1-FlpIn cells, 30 min, IBMX, mean ± S.E.M.
T23 construct: expressed in transfected cells
T23 sequence (P30988 25-474 V283A): as the sequence (P30988 25-474 E294A) above, with V259A, A270E counted along it
Experimental: as §1, §2

hCTR V293A = biological target: T24, hCTR V293A (Homo sapiens, UniProt P30988, V293A); test: cAMP accumulation; conditions: CV1-FlpIn cells, 30 min, IBMX, mean ± S.E.M.
T24 construct: c-Myc (N); expressed in transfected cells
T24 sequence (P30988 25-474 V293A): as the sequence (P30988 25-474 E294A) above, with V269A, A270E counted along it
Experimental: as §1, §2

hCTR V357A = biological target: T25, hCTR V357A (Homo sapiens, UniProt P30988, V357A); test: cAMP accumulation; conditions: CV1-FlpIn cells, 30 min, IBMX, mean ± S.E.M.
T25 construct: c-Myc (N); expressed in transfected cells
T25 sequence (P30988 25-474 V357A): as the sequence (P30988 25-474 E294A) above, with A270E, V333A counted along it
Experimental: as §1, §2

hCTR V358A = biological target: T26, hCTR V358A (Homo sapiens, UniProt P30988, V358A); test: cAMP accumulation; conditions: CV1-FlpIn cells, 30 min, IBMX, mean ± S.E.M.
T26 construct: c-Myc (N); expressed in transfected cells
T26 sequence (P30988 25-474 V358A): as the sequence (P30988 25-474 E294A) above, with A270E, V334A counted along it
Experimental: as §1, §2

hCTR V375A = biological target: T27, hCTR V375A (Homo sapiens, UniProt P30988, V375A); test: cAMP accumulation; conditions: CV1-FlpIn cells, 30 min, IBMX, mean ± S.E.M.
T27 construct: c-Myc (N); expressed in transfected cells
T27 sequence (P30988 25-474 V375A): as the sequence (P30988 25-474 E294A) above, with A270E, V351A counted along it
Experimental: as §1, §2

hCTR Y284A = biological target: T28, hCTR Y284A (Homo sapiens, UniProt P30988, Y284A); test: cAMP accumulation; conditions: CV1-FlpIn cells, 30 min, IBMX, mean ± S.E.M.
T28 construct: expressed in transfected cells
T28 sequence (P30988 25-474 Y284A): as the sequence (P30988 25-474 E294A) above, with Y260A, A270E counted along it
Experimental: as §1, §2

hCTR Y299A = biological target: T29, hCTR Y299A (Homo sapiens, UniProt P30988, Y299A); test: cAMP accumulation; conditions: CV1-FlpIn cells, 30 min, IBMX, mean ± S.E.M.
T29 construct: c-Myc (N); expressed in transfected cells
T29 sequence (P30988 25-474 Y299A): as the sequence (P30988 25-474 E294A) above, with A270E, Y275A counted along it
Experimental: as §1, §2

hCTR Y372A = biological target: T30, hCTR Y372A (Homo sapiens, UniProt P30988, Y372A); test: cAMP accumulation; conditions: CV1-FlpIn cells, 30 min, IBMX, mean ± S.E.M.
T30 construct: c-Myc (N); expressed in transfected cells
T30 sequence (P30988 25-474 Y372A): as the sequence (P30988 25-474 E294A) above, with A270E, Y348A counted along it
Experimental: as §1, §2

hCTR Y374A = biological target: T31, hCTR Y374A (Homo sapiens, UniProt P30988, Y374A); test: cAMP accumulation; conditions: CV1-FlpIn cells, 30 min, IBMX, mean ± S.E.M.
T31 construct: c-Myc (N); expressed in transfected cells
T31 sequence (P30988 25-474 Y374A): as the sequence (P30988 25-474 E294A) above, with A270E, Y350A counted along it
Experimental: as §1, §2

hCTR F285A [2] = biological target: T3, hCTR F285A; test: ERK1/2 phosphorylation; conditions: pERK, CV1-FlpIn cells, three-parameter logistic fit, mean ± S.E.M.
Experimental: Cells (2.5 × 10^4 cells/well) were seeded into 96-well culture plates and incubated overnight. […] Data were normalized to the maximal response elicited by 10% FBS determined at 6 min.
as §2

T1 sequence (P30988 25-474 C289A): as the sequence (P30988 25-474 E294A) above, with C265A, A270E counted along it

CC(C)C[C@H](NC(=O)[C@H](CC(N)=O)NC(=O)[C@H](CC(N)=O)NC(=O)[C@H](CO)NC(=O)[C@H](CO)NC(=O)[C@H](CCCNC(=N)N)NC(=O)[C@@H](NC(=O)[C@H](CC(C)C)NC(=O)[C@H](Cc1ccccc1)NC(=O)[C@H](CC(N)=O)NC(=O)[C@H](C)NC(=O)[C@H](CC(C)C)NC(=O)[C@H](CCCNC(=N)N)NC(=O)[C@H](CCC(N)=O)NC(=O)[C@@H](NC(=O)[C@H](C)NC(=O)[C@@H]1CSSC[C@H](NC(=O)[C@@H](N)CCCCN)C(=O)N[C@@H](CC(N)=O)C(=O)N[C@@H]([C@@H](C)O)C(=O)N[C@@H](C)C(=O)N[C@@H]([C@@H](C)O)C(=O)N1)[C@@H](C)O)C(C)C)C(=O)NCC(=O)N1CCC[C@H]1C(=O)N[C@H](C(=O)N[C@@H](CC(C)C)C(=O)N1CCC[C@H]1C(=O)N1CCC[C@H]1C(=O)N[C@H](C(=O)N[C@@H](CC(N)=O)C(=O)N[C@H](C(=O)NCC(=O)N[C@@H](CO)C(=O)N[C@@H](CC(N)=O)C(=O)N[C@H](C(=O)N[C@@H](Cc1ccc(O)cc1)C(N)=O)[C@@H](C)O)C(C)C)[C@@H](C)O)C(C)C [rAmy]
EC50 (hCTR C289A): 67.6 nM
EC50 (hCTR E294A): 12 nM
EC50 (hCTR F285A [1]): 6.76 nM
EC50 (hCTR F356A): 24 nM
EC50 (hCTR F359A): 23.4 nM
EC50 (hCTR I279A): 2.95 nM
EC50 (hCTR I371A): 1.86 nM
EC50 (hCTR K366A): 9.55 nM
EC50 (hCTR L297A): 13.5 nM
EC50 (hCTR L298A): 6.17 nM
EC50 (hCTR L368A): 11.7 nM
EC50 (hCTR M367A): 5.01 nM
EC50 (hCTR M376A): 46.8 nM
EC50 (hCTR N288A): 3.02 nM
EC50 (hCTR N365A): 6.61 nM
EC50 (hCTR P360A): 23.4 nM
EC50 (hCTR P363A): 15.1 nM
EC50 (hCTR R281A): 43.7 nM
EC50 (hCTR R362A): 24.5 nM
EC50 (hCTR S292A): 4.07 nM
EC50 (hCTR S364A): 4.47 nM
EC50 (hCTR T280A): 3.39 nM
EC50 (hCTR V283A): 6.76 nM
EC50 (hCTR V293A): 7.41 nM
EC50 (hCTR V357A): 20.4 nM
EC50 (hCTR V358A): 13.8 nM
EC50 (hCTR V375A): 7.94 nM
EC50 (hCTR Y284A): 10.2 nM
EC50 (hCTR Y299A): 19.5 nM
EC50 (hCTR Y372A): 186 nM
EC50 (hCTR Y374A): 7.94 nM
EC50 (hCTR F285A [2]): 21.9 nM
